The supplement of paper PMC10369915
The other results are listed elsewhere or left out. Cut-off read from the data, not from the text of the source: active = 3.2 or more and inactive = the rest. The signal is at background level for most entries.

B1: CALM1_Y100 (peptide)
chain: KDGNGYISAAE
B2: CALM1_Y139_F142L (peptide)
chain: DGQVNYEELVQ
B3: CALM2_Y100_D96V (peptide)
chain: KVGNGYISAAE
B4: CALM2_Y139_D134H (peptide)
chain: HGQVNYEEFVQ
B5: CALM2_Y139_Q136P (peptide)
chain: DGPVNYEEFVQ
B6: CAMK2A_Y230_P235L (peptide)
chain: IKAGAYDFPSL
B7: CAMKK2_Y128 (peptide)
chain: CPSLPYSPVSS
B8: CAMKK2_Y128_C123Y (peptide)
chain: YPSLPYSPVSS
B9: CAMKK2_Y128_C123Y_YF (peptide)
chain: FPSLPYSPVSS
B10: CAPN1_Y494 (peptide)
chain: LPPGEYVVVPS
B11: CAPN1_Y494_G492R (peptide)
chain: LPPREYVVVPS
B12: CARD9_Y76 (peptide)
chain: TGHKGYVAFLE
B13: CARMIL1_Y637 (peptide)
chain: MPIPMYDASQA
B14: CASD1_Y382_R386S (peptide)
chain: IMAYFYMCDSA
B15: CASK_Y708_D710G (peptide)
chain: KKKKQYKGKYL
B16: CASK_Y708_YF (peptide)
chain: KKKKQYKDKFL
B17: CASK_Y712_D710G_YF (peptide)
chain: QFKGKYLAKHN
B18: CASK_Y712_YF (peptide)
chain: QFKDKYLAKHN
B19: CASP5_Y103 (peptide)
chain: EEKKKYYDTKI
B20: CASP5_Y103_YF (peptide)
chain: EEKKKYFDTKI
B21: CASP5_Y104_T106A_YF (peptide)
chain: EKKKFYDAKIE
B22: CASP5_Y74_L75R (peptide)
chain: VKMLEYRGKDV
B23: CASQ1_Y43 (peptide)
chain: LDFPEYDGVDR
B24: CASQ1_Y43_D44N (peptide)
chain: LDFPEYNGVDR
B25: CASQ2_Y178 (peptide)
chain: SEDSEYYKAFE
B26: CASQ2_Y178_K180R (peptide)
chain: SEDSEYYRAFE
B27: CASQ2_Y179 (peptide)
chain: EDSEYYKAFEE
B28: CASQ2_Y179_K180R (peptide)
chain: EDSEYYRAFEE
B29: CASQ2_Y179_K180R_YF (peptide)
chain: EDSEFYRAFEE
B30: CAT_Y386 (peptide)
chain: ARVANYQRDGP
B31: CBL_Y368_Q367P (peptide)
chain: VTQEPYELYCE
B32: CBL_Y371 (peptide)
chain: EQYELYCEMGS
B33: CBL_Y371_Q367P_YF (peptide)
chain: EPFELYCEMGS
B34: CBL_Y371_YF (peptide)
chain: EQFELYCEMGS
B35: CBLC_Y402 (peptide)
chain: EAVSIYQFHGQ
B36: CBLC_Y402_H405Y (peptide)
chain: EAVSIYQFYGQ
B37: CBR3_Y81 (peptide)
chain: FLRKEYGGLNV

Molecular target: SHP2 C-SH2 domain E139D
Experiment: enrichment score (SH2-bound / input frequency) (ratio); bacterial display of known human phosphotyrosine sites (pTyr-Var adds point mutants) read by sequencing; higher = stronger binding; tyrosines were phosphorylated by kinases first
Conditions: peptide library: pTyr-Var
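Note: displayed peptides selected on beads carrying the immobilized SH2 domain, with library peptides lacking any tyrosine serving as negative controls.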

Enrichment score, inactive:
B1 0.595, B2 0.461, B3 0.884, B4 1.19, B5 0.631, B6 1.09, B7 0.792, B8 1.02, B9 1.09, B10 1.08, B11 0.748, B12 0.966, B13 0.906, B14 2.81, B15 0.332, B16 0.362, B17 1.12, B18 0.845, B19 0.94, B20 0.753, B21 0.608, B22 0.663, B23 0.763, B24 0.613, B25 0.521, B26 0.747, B27 0.438, B28 0.416, B29 0.407, B30 0.265, B31 0.724, B32 0.852, B33 0.84, B34 0.893, B35 1.12, B36 1.18, B37 0.62

Molecular target: SHP2 C-SH2 domain wild-type
Experiment: as above
Conditions: peptide library: pTyr-Var

Enrichment score, inactive:
B1 0.445, B2 0.719, B3 0.592, B4 0.896, B5 0.667, B6 0.873, B7 0.723, B8 0.884, B9 0.997, B10 0.705, B11 0.9, B12 0.93, B13 0.936, B14 2.57, B15 0.255, B16 0.426, B17 1.01, B18 1.11, B19 0.792, B20 0.746, B21 0.975, B22 0.907, B23 0.823, B24 0.663, B25 0.698, B26 0.73, B27 0.664, B28 0.742, B29 0.384, B30 0.391, B31 0.594, B32 0.888, B33 0.926, B34 1.17, B35 0.738, B36 1.11, B37 0.63

Molecular target: SHP2 N-SH2 domain L43F
Experiment: as above
Conditions: peptide library: pTyr-Var

Enrichment score, inactive:
B1 0.481, B2 0.592, B3 0.647, B4 0.92, B5 0.585, B6 1.14, B7 0.678, B8 0.897, B9 0.833, B10 0.745, B11 0.862, B12 1.04, B13 0.874, B14 2.67, B15 0.324, B16 0.3, B17 1.04, B18 0.675, B19 0.582, B20 0.689, B21 0.744, B22 1.03, B23 0.93, B24 0.645, B25 0.606, B26 0.509, B27 0.501, B28 0.478, B29 0.576, B30 0.332, B31 0.626, B32 0.895, B33 0.652, B34 1, B35 0.99, B36 0.974, B37 0.628

Molecular target: SHP2 N-SH2 domain T42A
Experiment: as above
Conditions: peptide library: pTyr-Var

Enrichment score, inactive:
B1 0.429, B2 0.513, B3 0.737, B4 1.04, B5 0.732, B6 0.925, B7 0.689, B8 0.795, B9 0.937, B10 0.618, B11 0.516, B12 0.748, B13 0.806, B14 2.48, B15 0.29, B16 0.355, B17 1.03, B18 3.12, B19 1.05, B20 0.591, B21 0.853, B22 0.812, B23 0.496, B24 0.627, B25 0.595, B26 0.552, B27 0.66, B28 0.383, B29 0.49, B30 0.306, B31 0.524, B32 0.888, B33 0.639, B34 1.05, B35 0.849, B36 0.966, B37 0.483

Molecular target: SHP2 N-SH2 domain T52S
Experiment: as above
Conditions: peptide library: pTyr-Var

Enrichment score, inactive:
B1 0.497, B2 0.657, B3 0.672, B4 1, B5 0.624, B6 0.84, B7 0.762, B8 0.927, B9 1.16, B10 0.768, B11 0.52, B12 0.783, B13 1.04, B14 2.23, B15 0.382, B16 0.357, B17 1.3, B18 1.16, B19 1.04, B20 0.763, B21 0.766, B22 0.929, B23 0.85, B24 0.704, B25 0.521, B26 0.604, B27 0.762, B28 0.666, B29 0.525, B30 0.174, B31 0.645, B32 0.689, B33 0.894, B34 0.736, B35 0.964, B36 1.05, B37 0.692

Molecular target: SHP2 N-SH2 domain wild-type
Experiment: as above
Conditions: peptide library: pTyr-Var

Enrichment score, inactive:
B1 0.754, B2 0.652, B3 0.976, B4 1.31, B5 0.845, B6 1.02, B7 0.9, B8 0.977, B9 1.02, B10 0.849, B11 0.735, B12 0.817, B13 0.938, B14 2.86, B15 0.297, B16 0.348, B17 0.908, B18 1.5, B19 0.976, B20 0.621, B21 0.784, B22 0.822, B23 0.815, B24 0.793, B25 0.899, B26 0.695, B27 0.639, B28 0.81, B29 0.476, B30 0.309, B31 0.774, B32 1.05, B33 0.992, B34 1.31, B35 0.697, B36 1.12, B37 0.817
